Experimental data from patent publication US20260055188A1 (SHENGHE CHINA BIOPHARMACEUTICAL, published 2026).
One block for each binder: values may come before it.

Target: T1, Human-TNFR2-His (manufacturer: SINO, CAT: 10417-H08H) (human, UniProt P20333 23-257)
T1 construct: Bought protein; also called human TNFR2 protein; TNFR2 protein; not shown: His tag
T1 sequence (looked up): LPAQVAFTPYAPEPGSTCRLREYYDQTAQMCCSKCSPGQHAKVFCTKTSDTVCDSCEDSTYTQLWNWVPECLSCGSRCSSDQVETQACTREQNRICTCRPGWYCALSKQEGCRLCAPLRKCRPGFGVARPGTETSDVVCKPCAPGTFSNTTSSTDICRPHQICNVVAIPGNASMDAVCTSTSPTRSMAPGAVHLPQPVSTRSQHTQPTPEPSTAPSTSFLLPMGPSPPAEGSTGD
Experiment: flow cytometry, bridging: CHOK1-18.2 cells (human Claudin18.2) + 150 nM antibody + human TNFR2-His, anti-His FITC detection
Procedure: Human TNFR2 protein (SINO, CAT: 10417-H08H) was sequentially added into 96-well plate with 100 μL/well, and after mixing, the 96-well plate was incubated at 4° C. for 1 h. Pre-cooled dilution was added and washed once, centrifuged (3000 rpm, 3 min), and the supernatant was discarded, and the cells were harvested. Fluorescent secondary antibody Anti-6X-his tag antibody (FITC) (manufacturer: abcam, Cat. No.: ab1206, Lot No.: GR3420599-3) was taken and diluted at the used concentration of 1:500. 100 μL of dilution was added to the blank control group, and 100 μL of fluorescent secondary antibody dilution was added to the rest of the sample groups respectively. After incubation for 0.5 h at room temperature and 4° C. protected from light, PBS was added to wash and centrifuged (3000 rpm, 3 min) twice. After discarding the supernatant, 80 μL of the dilution was added and resuspended.

E1 Mean FITC-A: 275000
B1: TC-E1 (bispecific antibody, human IgG1, kappa)
light: DIVMTQSPSSLAVSLGERATINCKSSQSLLQSGNQKNYLTWYQQKPGQPPKLLIYWASTRESGVPDRFSGSGSGTDFTLTISSLQAEDVAVYYCQNNYIFPLTFGQGTKLEIKRTVAAPSVFIFPPSDEQLKSGTASVVCLLNNFYPREAKVQWKVDNALQSGNSQESVTEQDSKDSTYSLSSTLTLSKADYEKHKVYACEVTHQGLSSPVTKSFNRGECGGGGSGGGGSEVQLVQSGAEVKKPGATVKISCKVSGYSITDYLLHWVQQAPGKCLEWMGWIDPEDAKTKYGQKFQSRVTITADTSTDTAYMELSSLRSEDTAVYYCAANSGTGTMDAWGQGTLVTVSSGGGGSGGGGSGGGGSDIVMTQSPATLSVSPGERATLSCKASQNVGSNVDWYQQKPGQSPRVLIYKASIRYTGIPARFSGSGSGTEFTLTISILQSEDFAVYFCMQSKSYPITFGCGTKLEIK
heavy: QVQLVQSGAEVKKPGASVKVSCKASGYTFTSYWMHWVRQAPGQRLEWMGSIESNSAGTKYDERFKTRVTITRDTSASTAYMELSSLRSEDTAVYYCARFYYGNSFAYWGQGTLVTVSS[not shown - human IgG1 constant region]

E1 Mean FITC-A: 141000
B2: TC-F1 (bispecific antibody, human IgG1, kappa)
light: EVQLVQSGAEVKKPGATVKISCKVSGYSITDYLLHWVQQAPGKCLEWMGWIDPEDAKTKYGQKFQSRVTITADTSTDTAYMELSSLRSEDTAVYYCAANSGTGTMDAWGQGTLVTVSSGGGGSGGGGSGGGGSDIVMTQSPATLSVSPGERATLSCKASQNVGSNVDWYQQKPGQSPRVLIYKASIRYTGIPARFSGSGSGTEFTLTISILQSEDFAVYFCMQSKSYPITFGCGTKLEIKGGGGSGGGGSGGGGSDIVMTQSPSSLAVSLGERATINCKSSQSLLQSGNQKNYLTWYQQKPGQPPKLLIYWASTRESGVPDRFSGSGSGTDFTLTISSLQAEDVAVYYCQNNYIFPLTFGQGTKLEIKRTVAAPSVFIFPPSDEQLKSGTASVVCLLNNFYPREAKVQWKVDNALQSGNSQESVTEQDSKDSTYSLSSTLTLSKADYEKHKVYACEVTHQGLSSPVTKSFNRGEC
heavy: B1 heavy

E1 Mean FITC-A: 55200
B3: TC-B1 (bispecific antibody, human IgG1, kappa)
light: DIVMTQSPSSLAVSLGERATINCKSSQSLLQSGNQKNYLTWYQQKPGQPPKLLIYWASTRESGVPDRFSGSGSGTDFTLTISSLQAEDVAVYYCQNNYIFPLTFGQGTKLEIKRTVAAPSVFIFPPSDEQLKSGTASVVCLLNNFYPREAKVQWKVDNALQSGNSQESVTEQDSKDSTYSLSSTLTLSKADYEKHKVYACEVTHQGLSSPVTKSFNRGEC
heavy: EVQLVQSGAEVKKPGATVKISCKVSGYSITDYLLHWVQQAPGKCLEWMGWIDPEDAKTKYGQKFQSRVTITADTSTDTAYMELSSLRSEDTAVYYCAANSGTGTMDAWGQGTLVTVSSGGGGSGGGGSGGGGSDIVMTQSPATLSVSPGERATLSCKASQNVGSNVDWYQQKPGQSPRVLIYKASIRYTGIPARFSGSGSGTEFTLTISILQSEDFAVYFCMQSKSYPITFGCGTKLEIKGGGGSGGGGSGGGGSQVQLVQSGAEVKKPGASVKVSCKASGYTFTSYWMHWVRQAPGQRLEWMGSIESNSAGTKYDERFKTRVTITRDTSASTAYMELSSLRSEDTAVYYCARFYYGNSFAYWGQGTLVTVSS[not shown - human IgG1 constant region]
